In one assay the target is T1, human DGKζ (Homo sapiens, UniProt Q13574).
T1 construct: TVMV protease cleavage site (C); Hexa-His (C); made in house; host or cells: Sf9 insect cells (baculovirus)
Description: DGKζ LIPGLO in vitro DGK inhibition assay (extruded liposome substrate). Format: biochemical. The conditions noted are these: 5 nM enzyme, read-out: DGKz LIPGLO IC50.

Another assay deals with human venous whole blood. Briefly: Human whole blood IFN-γ assay. In kind it is cell-based. The note with it: anti-CD3 and anti-CD28 1 μg/mL, 100% = 3 μM reference compound, read-out: INFg Whole Blood Normalized Agonist EC50. The method, then: Human venous whole blood (22.5 μL per well), obtained from healthy donors, was pre-treated with compounds for one hour at 37° C. in a humidified 95% air/5% CO2 incubator. The blood was stimulated with 2.5 μL anti-human CD3 and anti-CD28 mAb at a final concentration of 1 μg/mL each for 24 hours at 37° C. IFN-γ in the supermatants was measured using AIphLNSA kit (Cat#AL217).

A further assay concerns naïve human CD8 T cells. Briefly: Human CD8 T cells IFN-γ assay. In kind it is cell-based. The conditions noted are these: anti-CD3 plus anti-CD28; 100% = 3 μM reference compound; read-out: HuCD8 INFG Normalized EC50. The method, then:
Frozen naïve human CD8 T cells were thawed in AIM-V media, incubated for 2 h in 37° C., and counted. The 384-well tissue culture plate was coated overnight at 4° C. with 20 μL anti-human CD3 at 0.05 μg/mL in PBS, which was removed off the plate before 40,000 cells per 40 microliters CD8 T cells with 0.1 μg/mL soluble anti-human CD28 were added to each well. The compounds were transferred using an Echo liquid handler to the cell plate immediately after the cells were plated. After 20 h incubation at 37° C. incubator, 3 microliters per well supernatants transferred into a new 384-well white assay plate for cytokine measurement.
Interferon-γ (IFN-γ) was quantitated using the AlphLISA kit (Cat#AL217) as described by the manufacturer manual (Perkin Elmer). The counts from each well were converted to IFN-γ concentration (pg/mL).

A further assay addresses T2, human DGKα (Homo sapiens, UniProt P23743).
T2 construct: TVMV protease cleavage site (C); Hexa-His (C); made in house; host or cells: Sf9 insect cells (baculovirus)
Description: DGKα LIPGLO in vitro DGK inhibition assay (extruded liposome substrate). In kind it is biochemical.

In another assay the test system is HCT116-GFP cells. Description: CMV specific human CD8 T cell / peptide-pulsed HCT116-GFP co-culture. Format: cell-based. The method, then: The assay was conducted as follows: HCT116-GFP (human colorectal cancer) cells were acquired from Cellomics. HCT116-GFP were pulsed with A2 and B35 peptides (Astarte) at indicated concentrations for 1 hour followed by washout. Cells were plated and allowed to adhere overnight. CMV specific human CD8 T cells (Astarte) were thawed, treated with DGKi Compound 15 for 1 hour then added to the HCT116-GFP cells. Supernatant was collected at 24 hours post co-culture and IFNg was measured using AlphaLISA (PerkinElmer). Images of GFP were taken using a fluorescent microscope.

The test system of another assay is OT-1 CD8 T cells. Description: OT1 CD8 T cell / peptide-pulsed MC38 co-culture IL-2 assay. Format: cell-based, mouse. The conditions noted are these: MC38 pulsed with OVA, A2, Q4, T4, Q4H7 peptides, FIGS. 4A-F. As for the experimental part: This assay was conducted as follows: MC38 cells (murine colon adenocarcinoma cells) were acquired from and cultured in 10% fetal bovine serum (Invitrogen/ThermoFisher Scientific) and RPMI 1640 Medium (Gibco/ThermoFisher Scientific). Ova and heteroclitic peptide variants were acquired from AnaSpec and resuspended according to manufacturer's protocol. MC38 cells were pulsed with 1 μg/mL of peptide or indicated concentration for 3 hours then free peptide was washed out. […] MC38-protein pulsed cells were added to the plate and co-cultured overnight at 37° C. Supernatants were collected and IL-2 was measured using AlphaLISA (PerkinElmer).

Assay [1] deals with HCT116-GFP B2M knock-out clones. Description: CMV specific human CD8 T cell / B2M CRISPR KO HCT116-GFP co-culture IFN-γ assay. Format: cell-based. The note with it: tumor cells having reduced class I MHC; 24 hours; FIG. 6B. As for the experimental part: The assay was conducted as follows: HCT116-GFP were acquired from Cellomics and cultured in 10% fetal bovine serum (Invitrogen/ThermoFisher Scientific) and RPMI 1640 Medium (Gibco/ThermoFisher Scientific). B2M guide RNA (Synthego) was introduced to HCT116-GFP cells by nucleofection (Lonza). After recovery, cells were plated in individual wells to generate single cell clones. Clones were stained for B2M (Biolegend) and evaluated by flow cytometry. Clones were then pulsed with A2 or B35 peptides (Astarte) at 1 mg/mL for 1 hour followed by washout. Cells were plated and allowed to adhere overnight. CMV specific human CD8 T cells (Astarte) were thawed, treated with DGKi Compound 15 for 1 hour and then added to the HCT116 cells. Supernatant was collected at 24 hours post co-culture and IFN-γ was measured using AlphaLISA (PerkinElmer).

Assay [2] concerns the target OT1 TCR specific for ovalbumin. Briefly: TCR binding affinities of OVA peptide variants. Also on record: species or system mouse. The conditions noted are these: read-out: KD (μM), TCR binding affinity.
Assay [3] has as its target OT1 TCR (class I restricted transgenic TCR of OT1 mice, specific for ovalbumin peptide SIINFEKL). Description: TCR binding affinity of the peptide; method not stated.
Setting [4] is: extruded liposome substrate, 5 nM enzyme, read-out: DGKa LIPGLO IC50.

Like-named read-outs stand apart in the source and are kept apart here.

As a reminder, the IC50 is the concentration that inhibits the measured activity by half. A word on the EC50: it is the concentration that produces a half-maximal response. The term Kd denotes a measure of binding affinity in units of concentration.

On to “8-[(2S,5R)-4-[1-(2,6-difluorophenyl)ethyl]-2,5-dimethylpiperazin-1-yl]-5-methyl-6-oxo-5,6-dihydro-1,5-naphthyridine-2-carbonitrile [DGKi Compound 11]”, for which the IC50 came to 0.57 µM at human DGKζ and 0.14 µM at human DGKα (setting [4]). For the same molecule, the results for the EC50 in the assay with human venous whole blood (24 hours) and in the assay with naïve human CD8 T cells were 0.65 µM and 0.022 µM, respectively. For the molecule `CCC(c1ccc(OCC2CC2)cc1F)N1C[C@H](CC)N(c2nc(=O)n(C)c3ccc(C#N)nc23)C[C@H]1CC` (single isomer, unassigned) [DGKi Compound 30], the EC50 in the assay on human venous whole blood (Homo sapiens, 24 h) is 11.3 µM.

As for `CCC(c1ccc(F)cc1F)N1C[C@H](C)N(c2cc(=O)n(C)c3ccc(C#N)nc23)C[C@H]1C` (stereo partly drawn) [DGKi Compound 12, 8-((2S,5R)-4-(1-(2,4-difluorophenyl)propyl)-2,5-dimethylpiperazin-1-yl)-5-methyl-6-oxo-5,6-dihydro-1,5-naphthyridine-2-carbonitrile], the IC50 at human DGKζ worked out at 0.46 µM; on human DGKα (setting [4]), 0.57 µM.

On to `Cn1c(=O)c([N+](=O)[O-])c(N2CCN(C(c3ccc(F)cc3)c3ccc(F)cc3)CC2)c2nc(C#N)ccc21` [DGKi Compound 15, 8-(4-(bis(4-fluorophenyl)methyl)piperazin-1-yl)-5-methyl-7-nitro-6-oxo-5,6-dihydro-1,5-naphthyridine-2-carbonitrile], for which the “human CTL effector function (IFNg secretion)” value in the assay with HCT116-GFP cells (24 hours post co-culture, FIG. 5A) is given as “increases human CTL effector function”. Moreover, the tumor cell killing entry in the assay on HCT116-GFP cells (HCT116-GFP, day 3, FIG. 5B) is “enhances tumor cell killing”. The IC50 on human DGKζ turned out to be 0.21 µM; against human DGKα, 3.4 µM. In addition, in the assay on OT-1 CD8 T cells, the “antigen requirement for T cell antigen recognition and activation (IL-2 secretion)” value was “lowers both the affinity requirement and the concentration requirement of antigen”. Moreover, the “IFN-γ levels from T cells” value in [1] is “increases IFN-γ levels”. “SAINFEKL [A2, derivative of the OVA peptide]”: the Kd in assay [2] is 4 µM. Still for that read-out and setting: under “SIINFEKL [OVA, ovalbumin peptide recognised by the OT1 TCR]” stands 1 µM; under “SIIQFEHL [Q4H7, derivative of the OVA peptide]”, 167 µM. On the same count and under the same terms, under “SIIQFEKL [Q4, derivative of the OVA peptide]” stands 36 µM; under “SIITFEKL [T4, derivative of the OVA peptide]”, 122 µM. In assay [3], SIITFEKL (peptide-MHC, part only; not given: MHC class I heavy chain, b2m, part only) [T4 peptide (SIITFEKL), derivative of the OVA peptide] registered a Kd of 122 µM. For the molecule SIIQFEKL (peptide-MHC, part only; not given: MHC class I heavy chain, b2m, part only) [Q4 peptide (SIIQFEKL), derivative of the OVA peptide], the equilibrium dissociation constant (Kd) in assay [3] worked out at 36 µM.

In the case of SAINFEKL (peptide-MHC, part only; not given: MHC class I heavy chain, b2m, part only) [A2 peptide (SAINFEKL), derivative of the OVA peptide], the dissociation constant Kd in [3] stood at 4 µM.

As to SIIQFEHL (peptide-MHC, part only; not given: MHC class I heavy chain, b2m, part only) [Q4H7 peptide (SIIQFEHL), derivative of the OVA peptide], the Kd in assay [3] came out at 167 µM.

These data come from US20230089255A1, “COMBINATIONS OF DGK INHIBITORS AND CHECKPOINT ANTAGONISTS” (BRISTOL-MYERS SQUIBB COMPANY, priority 2019, published 2023).
